Assay results as given in PubChem BioAssay AID1768 (National Center for Advancing Translational Sciences (NCATS), 2009).
The whole screen tested about 270,000 compounds, of which about 620 (0.23%) were called active. The inconclusive results got no clear call from the source; some entries with a clear call stand among them for comparison. The call rests on the fitted dose curve; in most records, active means well fitted inhibition curve with a large enough effect in the polarisation, with a control signal flat (not every such curve was filed as active); inconclusive means small, poorly fitted or top-dose-only effect, or effect the other way, or a change in a side signal; inactive means no such curve, though single readings can be large or run the other way; the % refers to the polarisation. Potencies of inconclusive entries are doubtful fits and often do not repeat. “Side channel” marks fits to a control or component signal instead of the main read-out.

These molecules were tested against Menin (Homo sapiens) (UniProt O00255) (assay: qHTS Assay for Inhibitors Targeting the Menin-MLL Interaction in MLL Related Leukemias: Competition With Texas Red Labeled MLL-derived Mutant Peptide). Settings: fluorescence polarization; FP activity change, negative = inhibition: at 61.6 µM (top of the series).
Potency means the concentration at half of the fitted maximal effect; tags describe the fitted curve by direction and shape or compound fluorescence and quenching.
Wherever FP activity change, negative = inhibition is given: % of control where 0% means no effect.

Sequence of UniProt O00255 (O00255 whole entry, looked up): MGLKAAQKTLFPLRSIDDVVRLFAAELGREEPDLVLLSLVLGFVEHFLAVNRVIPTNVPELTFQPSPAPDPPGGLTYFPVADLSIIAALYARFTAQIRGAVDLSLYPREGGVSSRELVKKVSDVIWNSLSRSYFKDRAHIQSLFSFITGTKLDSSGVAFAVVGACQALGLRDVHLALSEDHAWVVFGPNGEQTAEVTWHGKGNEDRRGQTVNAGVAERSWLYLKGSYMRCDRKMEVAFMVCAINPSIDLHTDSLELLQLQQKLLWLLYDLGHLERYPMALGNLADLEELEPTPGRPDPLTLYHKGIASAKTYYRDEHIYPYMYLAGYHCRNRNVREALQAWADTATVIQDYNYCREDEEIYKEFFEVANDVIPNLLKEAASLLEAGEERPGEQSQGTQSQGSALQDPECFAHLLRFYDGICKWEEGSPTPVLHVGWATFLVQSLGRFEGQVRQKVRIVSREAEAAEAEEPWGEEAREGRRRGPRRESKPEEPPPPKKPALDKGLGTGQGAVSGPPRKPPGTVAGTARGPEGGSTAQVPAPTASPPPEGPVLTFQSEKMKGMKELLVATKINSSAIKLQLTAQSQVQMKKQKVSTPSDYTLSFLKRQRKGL

Potency, inconclusive:
CCC1Cc2cc(O)ccc2C2=C1c1ccc(O)cc1CC2CC (stereo not drawn) 25.1 µM [quencher, side channel, partial curve]
Cc1cc(=O)[nH]c(SCC(=O)Nc2ncc(S(=O)(=O)c3ccc([N+](=O)[O-])cc3)s2)n1 31.6 µM [quencher, side channel, single point]
CC(=O)Nc1ccc(NC(=O)C2CCN(C(=O)NC3CCCCC3)CC2)cc1 39.8 µM [inhibitor, single point]
O=C1c2sc3nc4n(c(=O)c3c2CCC1Br)CCCCC4 (stereo not drawn) 12.6 µM [inhibitor, single point]
CCN1C(=S)SC(=O)C1=C1C=C(C)N(Cc2ccco2)C(C)=C1 10 µM [quencher, side channel, partial curve]
O=C(CC1C(=O)NCCN1Cc1cccc(Oc2ccccc2)c1)NCCc1ccccn1 (stereo not drawn) 14.1 µM [inhibitor, partial curve]
Cc1ccc(S(=O)(=O)Nc2nc(C)c(C(=O)N/N=C/c3ccccc3)s2)cc1 14.1 µM [quencher, side channel, partial curve]
O=C(Oc1cccc(-n2cnnn2)c1)c1ccccc1Cl 35.5 µM [inhibitor, single point]
Cc1[nH]c2ccccc2c1CCN(Cc1cccnc1)C(=S)Nc1ccc(F)cc1 12.6 µM [quencher, side channel, partial curve]
COc1ccc(CC(=O)Nc2cccc(-c3nnc(-c4ccccc4)o3)c2)cc1OC 11.2 µM [quencher, side channel, partial curve]
Cc1ccc2nc(NC(=O)c3cccs3)sc2c1 15.8 µM [quencher, side channel, partial curve]
COc1ccc(/C=C/C(=O)NC(=S)Nc2ccc(S(=O)(=O)Nc3cc(OC)ncn3)cc2)cc1 10 µM [quencher, side channel, partial curve]
O=C(C[n+]1cc(-c2ccc(F)cc2)n2c1CCC2)Nc1nc(-c2ccc(F)cc2)cs1 15.8 µM [inhibitor, partial curve, poor fit]
CCOC(=O)N1CCN(S(=O)(=O)c2cc(-c3nn4c(C)nnc4c4ccccc34)ccc2C)CC1 7.94 µM [fluorescent, side channel, partial curve, poor fit]
CCn1c(COc2ccccc2OC)nnc1SCC#N 1.58 µM [inhibitor, partial curve]
CCOC(=O)C1(Cc2ccc(OC)cc2)CCN(C(=O)c2sc(C)nc2C)CC1 7.08 µM [fluorescent, side channel, partial curve]
O=C(O)CCN1c2ccccc2Sc2ccccc21 25.1 µM [quencher, side channel, single point]
Cc1ccc(C(C)C)c(OCc2nnc(SCC(=O)Nc3ncc(C)s3)n2C)c1 0.708 µM [inhibitor, full curve, poor fit]
CCCN(CCC)S(=O)(=O)c1ccc(C(=O)Nc2nnc(-c3cccc(OC)c3)o2)cc1 35.5 µM [quencher, side channel, single point]
COc1cc(/C=N/NC(N)=S)cc(Br)c1OCc1ccccc1F 3.55 µM [quencher, side channel, full curve]
O=C(Nc1ccccc1)c1cccc2c(Br)cccc12 35.5 µM [inhibitor, single point]
O=C(/C=C/c1cccc([N+](=O)[O-])c1)Nc1ccc(Cl)cn1 3.98 µM [quencher, side channel, partial curve]
Cc1ccc(-c2csc(Nc3ccccn3)n2)cc1 12.6 µM [quencher, side channel, partial curve]
COc1cccc(-c2nc(-c3ccc(NC(=O)Cc4ccccc4OC)cc3)no2)c1 11.2 µM [quencher, side channel, partial curve]
CCOC(=O)/C(C#N)=C/Nc1ccccc1NS(=O)(=O)c1cccc(C(C)=O)c1 28.2 µM [quencher, side channel, partial curve]
Cc1ccc(/C=N/Nc2nc3ccccc3s2)o1 25.1 µM [quencher, side channel, partial curve]
CCOC(=O)c1sc2c(c1C)c(=O)n(CCO)c(=O)n2Cc1ccccc1 25.1 µM [inhibitor, single point]
CC1Cc2ccccc2N1C(=O)CCN1C(=O)C2C3C=CC(C3)C2C1=O (stereo not drawn) 39.8 µM [inhibitor, single point]
Cc1occc1-c1nnc(-c2cc([N+](=O)[O-])cc([N+](=O)[O-])c2)o1 39.8 µM [quencher, side channel, single point]
CCOC(=O)Cc1csc(-n2sc3ccccc3c2=O)n1 10 µM [quencher, side channel, partial curve]
Cc1nc2c(O)cccc2cc1CO 39.8 µM [inhibitor, partial curve, poor fit]

FP activity change, negative = inhibition, inactive:
C=CCNC(=O)/C(C#N)=C/c1ccc(SC)cc1 5.53%
COC(=O)c1ccc(NC(=O)CN2CCCC2)cc1 9.03%
COCCNC(=O)c1ccccc1NC(=O)CN(c1ccc2c(c1)OCO2)S(C)(=O)=O -21.8%
O=C1c2ccccc2C(=O)N1CC(O)COCc1ccccc1 (stereo not drawn) 1.78%
CSc1nnc(C)c(=O)n1COC(=O)COc1ccccc1F -7.38%
CC(=O)[C@@]1(O)CC[C@H]2[C@@H]3C[C@H](C)C4=CC(=O)C=C[C@]4(C)[C@@]3(F)[C@@H](O)C[C@@]21C -12.3%
O=Cc1ccc2ccc3cccnc3c2n1 -13.2%
